In PubChem BioAssay AID463173 (ICCB-Longwood Screening Facility, Harvard Medical School, 2010) one finds survival data, which are given here for 25 compounds.

Each structure is given as a SMILES string. The whole screen tested about 52,000 compounds, of which about 1,700 (3.3%) were called active. Rule as the data show it: active = survival mostly below about 52% (no sharp cut-off); inactive = mostly above about 56%. The list shows a part of the results.

This experiment has as its system Wild type. Put plainly: growth inhibition of S. aureus wild type versus tarO mutant, primary screen, teichoic acid synthesis inhibitors, RN4220, OD600 (AID 463173). To be noted: S. aureus RN4220 wild type/DeltatarO growth, OD600, 18 h, hits give low values, screened at 18.75 µg/mL (by protocol).
Regarding `Cc1ccc2nc(Cl)c3cc(C(=O)NC4CCC(C)CC4)sc3c2c1` (stereo not given), the survival was inactive: 72%.

With `CCN(CC)C(=O)CSc1nnc(-c2ccco2)n1CCCOC`, the survival is inactive: 108%.

As for `Cc1ccc(/C=N/NC(=O)C2=NNC(=O)C2C)o1` (stereo not given), the survival is inactive: 107%.

`Cc1ccc(N2CCN(C(=O)c3cc(S(=O)(=O)N4CCCCC4)c[nH]3)CC2)c(C)c1`: the survival is inactive: 73%.

Turning to `Cc1ccc(-c2cc(C(=O)Oc3ccccc3Cl)no2)cc1C`, the survival was active: -6%.

As to `Cc1cccc(OCC(=O)N(Cc2ccccc2)c2ccccn2)c1`, the survival was inactive: 87%.

Consider `CS(=O)(=O)N1CCCc2cc(C(=O)Nc3cccc(C(F)(F)F)c3)ccc21`, for which the survival is inactive: 70%.

Regarding `COc1ccc(C2C(=O)N(C3CCCCCC3)CC(=O)N2CCC2=CCCCC2)cc1` (stereo not given), the survival was inactive: 53%.

`COc1ccc(CCNC(=O)c2ccc3c(Cl)c4c(nc3c2)CCCC4)c(OC)c1`: the survival is inactive: 97%.

Regarding `COC(=O)c1cnc(N2CCN(c3ccc(F)cc3)CC2)c2ccccc12`, the survival is inactive: 89%.

For `CC1CCC(NC(=O)c2ccc(CS(=O)(=O)c3c(Cl)cccc3Cl)o2)CC1` (stereo not given), the survival is inactive: 71%.

On to `CC(=O)c1ccc(N2CCN(c3ncnc4onc(C)c34)CC2)cc1`, for which the survival is inactive: 66%.

As to `CCN(CC)C(=O)Cn1cc(/C=C(\C#N)C(=O)N2CCN(c3ccccc3)CC2)c2ccccc21`, the survival is inactive: 102%.

As for `O=C(OC(C(=O)NCc1cccs1)c1ccccn1)c1cccs1` (stereo not given), the survival was inactive: 110%.

`O=C(NCCN1CCCCC1)c1ccc(Cn2c(SCc3cccc(F)c3)nc3cccnc32)cc1`: the survival is inactive: 89%.

Consider `COC(=O)c1ccc(CSc2nc3c(c(=O)[nH]2)CCC3)cc1`, for which the survival is inactive: 85%.

Consider `COc1ccc(OCC(=O)Nc2ccccc2C(=O)OCc2cc(=O)n3nc(C)sc3n2)cc1`, for which the survival is inactive: 66%.

On to `COc1cc(-c2nc(-c3cccc(Cl)c3)c(-c3ccccc3)[nH]2)cc(OC)c1OC`, for which the survival was inactive: 143%.

For the compound `Cc1ccc(NC(=O)Cn2c(=O)n(Cc3ccc4c(c3)OCO4)c(=O)c3ccccc32)c(C)c1`, the survival is inactive: 97%.

For the compound `CCc1ccccc1NC(=O)Cn1c(=O)n(Cc2ccco2)c(=O)c2sc3ccccc3c21`, the survival is inactive: 89%.

Regarding `Cc1ccc2nc(N3CCN(c4cccc(C)c4C)CC3)c3nncn3c2c1`, the survival was inactive: 26%.

Regarding `Cc1ccc(C)c(N2CCN(S(=O)(=O)c3cnc(N)nc3)CC2)c1`, the survival is inactive: 82%.

`CC(C)CCn1c(=O)c2sccc2n2c(CCCC(=O)NC3CCC(C)CC3)nnc12` (stereo not given): the survival was inactive: 92%.

As for `O=C(CCn1nnc(-c2cccs2)n1)NC1CCCCC1`, the survival was inactive: 115%.

For `CCOC(=O)c1ccc2c(c1)N(Cc1ccccc1)C(=O)c1ccccc1S2`, the survival was inactive: 75%.
